Some of these densities may be calculated back from excess volumes.
Assay: xn = mol fraction of the nth substance listed
Conditions: 101 kPa

CCCCCO + CCCCCC[n+]1ccn(C)c1.[Cl-]
mass density (293.15 K, x1 = 1): 814.9 kg/m3 | mass density (313.15 K, x1 = 1): 800.1 kg/m3 | mass density (323.15 K, x1 = 1): 792.5 kg/m3 | mass density (333.15 K, x1 = 1): 784.6 kg/m3

OCCO + CCCCCC[n+]1ccn(C)c1.[Cl-]
mass density (293.15 K, x1 = 1): 1112.9 kg/m3 | mass density (303.15 K, x1 = 1): 1105.9 kg/m3 | mass density (313.15 K, x1 = 1): 1098.8 kg/m3 | mass density (323.15 K, x1 = 1): 1091.7 kg/m3 | mass density (333.15 K, x1 = 1): 1084.5 kg/m3

CCCCCC[n+]1ccn(C)c1.[Cl-] + CCCCCO
mass density (293.15 K, x1 = 0.0042): 816.8 kg/m3 | mass density (293.15 K, x1 = 0.0166): 822.2 kg/m3 | mass density (293.15 K, x2 = 0): 1037.6 kg/m3 | mass density (293.15 K, x2 = 0.1514): 1020.2 kg/m3 | mass density (293.15 K, x2 = 0.2971): 1001.6 kg/m3 | mass density (293.15 K, x2 = 0.5018): 968.1 kg/m3 | mass density (293.15 K, x2 = 0.6066): 943.7 kg/m3 | mass density (293.15 K, x2 = 0.7018): 918.4 kg/m3 | mass density (293.15 K, x2 = 0.8012): 887.4 kg/m3 | mass density (293.15 K, x2 = 0.8825): 860.6 kg/m3 | mass density (293.15 K, x2 = 0.9494): 836 kg/m3 | mass density (293.15 K, x2 = 0.9749): 825.7 kg/m3 | mass density (303.15 K, x1 = 0.0088): 811.6 kg/m3 | mass density (303.15 K, x2 = 0): 1033.8 kg/m3 | mass density (303.15 K, x2 = 0.2971): 996.1 kg/m3 | mass density (303.15 K, x2 = 0.5018): 962.1 kg/m3 | mass density (303.15 K, x2 = 0.6066): 937.5 kg/m3 | mass density (303.15 K, x2 = 0.7018): 911.9 kg/m3 | mass density (303.15 K, x2 = 0.8012): 880.8 kg/m3 | mass density (303.15 K, x2 = 0.849): 866.3 kg/m3 | mass density (303.15 K, x2 = 0.8825): 853.8 kg/m3 | mass density (303.15 K, x2 = 0.9494): 829 kg/m3 | mass density (303.15 K, x2 = 0.9749): 818.5 kg/m3 | mass density (313.15 K, x1 = 0.0088): 804.2 kg/m3 | mass density (313.15 K, x1 = 0.0166): 807.6 kg/m3 | mass density (313.15 K, x2 = 0): 1029.3 kg/m3 | mass density (313.15 K, x2 = 0.1514): 1010.1 kg/m3 | mass density (313.15 K, x2 = 0.5018): 956.1 kg/m3 | mass density (313.15 K, x2 = 0.6066): 931.4 kg/m3 | mass density (313.15 K, x2 = 0.7018): 905.5 kg/m3 | mass density (313.15 K, x2 = 0.849): 859.5 kg/m3 | mass density (313.15 K, x2 = 0.8825): 846.9 kg/m3 | mass density (313.15 K, x2 = 0.9494): 821.8 kg/m3 | mass density (313.15 K, x2 = 0.9749): 811.1 kg/m3 | mass density (323.15 K, x1 = 0.0042): 794.4 kg/m3 | mass density (323.15 K, x1 = 0.0088): 796.7 kg/m3 | mass density (323.15 K, x1 = 0.0166): 800.1 kg/m3 | mass density (323.15 K, x2 = 0.1514): 1004.8 kg/m3 | mass density (323.15 K, x2 = 0.2971): 984.8 kg/m3 | mass density (323.15 K, x2 = 0.5018): 950.1 kg/m3 | mass density (323.15 K, x2 = 0.6066): 925.2 kg/m3 | mass density (323.15 K, x2 = 0.7018): 899 kg/m3 | mass density (323.15 K, x2 = 0.849): 852.7 kg/m3 | mass density (323.15 K, x2 = 0.8825): 839.9 kg/m3 | mass density (323.15 K, x2 = 0.9494): 814.5 kg/m3 | mass density (323.15 K, x2 = 0.9749): 803.7 kg/m3 | mass density (333.15 K, x1 = 0.0042): 786.7 kg/m3 | mass density (333.15 K, x1 = 0.0088): 789 kg/m3 | mass density (333.15 K, x1 = 0.0166): 792.5 kg/m3 | mass density (333.15 K, x2 = 0): 1019 kg/m3 | mass density (333.15 K, x2 = 0.1514): 999.3 kg/m3 | mass density (333.15 K, x2 = 0.2971): 979.2 kg/m3 | mass density (333.15 K, x2 = 0.5018): 944.1 kg/m3 | mass density (333.15 K, x2 = 0.6066): 919 kg/m3 | mass density (333.15 K, x2 = 0.8012): 860.7 kg/m3 | mass density (333.15 K, x2 = 0.849): 845.7 kg/m3 | mass density (333.15 K, x2 = 0.8825): 832.9 kg/m3 | mass density (333.15 K, x2 = 0.9494): 807.1 kg/m3 | mass density (333.15 K, x2 = 0.9749): 796.1 kg/m3

CCCCCC[n+]1ccn(C)c1.[Cl-] + OCCO
mass density (293.15 K, x1 = 0.0061): 1111 kg/m3 | mass density (293.15 K, x1 = 0.0124): 1109.6 kg/m3 | mass density (293.15 K, x1 = 0.0188): 1107.7 kg/m3 | mass density (293.15 K, x2 = 0): 1037.6 kg/m3 | mass density (293.15 K, x2 = 0.1526): 1042.5 kg/m3 | mass density (293.15 K, x2 = 0.3167): 1047.5 kg/m3 | mass density (293.15 K, x2 = 0.3999): 1049.9 kg/m3 | mass density (293.15 K, x2 = 0.6987): 1064.3 kg/m3 | mass density (293.15 K, x2 = 0.8026): 1074.1 kg/m3 | mass density (293.15 K, x2 = 0.8897): 1086.9 kg/m3 | mass density (293.15 K, x2 = 0.8998): 1088.8 kg/m3 | mass density (293.15 K, x2 = 0.9152): 1091.8 kg/m3 | mass density (293.15 K, x2 = 0.931): 1095.1 kg/m3 | mass density (293.15 K, x2 = 0.9532): 1100.3 kg/m3 | mass density (293.15 K, x2 = 0.9642): 1103.2 kg/m3 | mass density (293.15 K, x2 = 0.9761): 1106.3 kg/m3 | mass density (303.15 K, x1 = 0.003): 1105.3 kg/m3 | mass density (303.15 K, x1 = 0.0061): 1104 kg/m3 | mass density (303.15 K, x1 = 0.0124): 1102.6 kg/m3 | mass density (303.15 K, x2 = 0.1526): 1038.2 kg/m3 | mass density (303.15 K, x2 = 0.3167): 1042 kg/m3 | mass density (303.15 K, x2 = 0.3999): 1044.1 kg/m3 | mass density (303.15 K, x2 = 0.4977): 1047.5 kg/m3 | mass density (303.15 K, x2 = 0.6002): 1052 kg/m3 | mass density (303.15 K, x2 = 0.6987): 1058.1 kg/m3 | mass density (303.15 K, x2 = 0.8026): 1067.6 kg/m3 | mass density (303.15 K, x2 = 0.8897): 1080.3 kg/m3 | mass density (303.15 K, x2 = 0.8998): 1082.2 kg/m3 | mass density (303.15 K, x2 = 0.9152): 1085.1 kg/m3 | mass density (303.15 K, x2 = 0.931): 1088.4 kg/m3 | mass density (303.15 K, x2 = 0.9532): 1093.6 kg/m3 | mass density (303.15 K, x2 = 0.9642): 1096.3 kg/m3 | mass density (303.15 K, x2 = 0.9761): 1099.5 kg/m3 | mass density (313.15 K, x1 = 0.003): 1098.3 kg/m3 | mass density (313.15 K, x1 = 0.0061): 1097 kg/m3 | mass density (313.15 K, x1 = 0.0124): 1095.7 kg/m3 | mass density (313.15 K, x2 = 0): 1029.3 kg/m3 | mass density (313.15 K, x2 = 0.1526): 1032.6 kg/m3 | mass density (313.15 K, x2 = 0.3167): 1036.3 kg/m3 | mass density (313.15 K, x2 = 0.3999): 1038.5 kg/m3 | mass density (313.15 K, x2 = 0.4977): 1041.7 kg/m3 | mass density (313.15 K, x2 = 0.6002): 1045.9 kg/m3 | mass density (313.15 K, x2 = 0.8026): 1061.2 kg/m3 | mass density (313.15 K, x2 = 0.8998): 1075.5 kg/m3 | mass density (313.15 K, x2 = 0.9152): 1078.4 kg/m3 | mass density (313.15 K, x2 = 0.931): 1081.6 kg/m3 | mass density (313.15 K, x2 = 0.9532): 1086.7 kg/m3 | mass density (323.15 K, x1 = 0.003): 1091.2 kg/m3 | mass density (323.15 K, x1 = 0.0124): 1088.6 kg/m3 | mass density (323.15 K, x1 = 0.0188): 1086.9 kg/m3 | mass density (323.15 K, x2 = 0.1526): 1027.2 kg/m3 | mass density (323.15 K, x2 = 0.3167): 1030.8 kg/m3 | mass density (323.15 K, x2 = 0.3999): 1032.9 kg/m3 | mass density (323.15 K, x2 = 0.4977): 1035.8 kg/m3 | mass density (323.15 K, x2 = 0.8026): 1054.7 kg/m3 | mass density (323.15 K, x2 = 0.8897): 1066.9 kg/m3 | mass density (323.15 K, x2 = 0.9152): 1071.6 kg/m3 | mass density (323.15 K, x2 = 0.931): 1074.8 kg/m3 | mass density (323.15 K, x2 = 0.9532): 1079.8 kg/m3 | mass density (323.15 K, x2 = 0.9761): 1085.5 kg/m3 | mass density (333.15 K, x1 = 0.003): 1084 kg/m3 | mass density (333.15 K, x1 = 0.0124): 1081.5 kg/m3 | mass density (333.15 K, x1 = 0.0188): 1079.8 kg/m3 | mass density (333.15 K, x2 = 0): 1019 kg/m3 | mass density (333.15 K, x2 = 0.3167): 1025.3 kg/m3 | mass density (333.15 K, x2 = 0.3999): 1027.2 kg/m3 | mass density (333.15 K, x2 = 0.6002): 1033.9 kg/m3 | mass density (333.15 K, x2 = 0.8026): 1048.2 kg/m3 | mass density (333.15 K, x2 = 0.8897): 1060.1 kg/m3 | mass density (333.15 K, x2 = 0.8998): 1061.9 kg/m3 | mass density (333.15 K, x2 = 0.9152): 1064.8 kg/m3 | mass density (333.15 K, x2 = 0.931): 1067.9 kg/m3 | mass density (333.15 K, x2 = 0.9642): 1075.5 kg/m3 | mass density (333.15 K, x2 = 0.9761): 1078.4 kg/m3

Source: a compilation of properties of binary mixtures (doi:10.1007/s10953-017-0695-7)
